Source: the supplement of paper PMC12217912
The list shows a part of the results. The full chains were built here from the parent and the listed change. Inactive controls read about 0.05.

B1: TEV protease; numbered along this chain (parent)
chain: MGESLFKGPRDYNPISSSICHLTNESDGHTTSLYGIGFGPFIITNKHLFRRNNGTLVVQSLHGVFKVKDTTTLQQHLVDGRDMIIIRMPKDFPPFPQKLKFREPQREERICLVTTNFQTKSMSSMVSDTSCTFPSGDGIFWKHWIQTKDGQCGSPLVSTRDGFIVGIHSASNFTNTNNYFTSVPKNFMELLTNQEAQQWVSGWRLNADSVLWGGHKVFMVKPEEPFQPVKEATQL

Variants of: B1
Test: raw area under fraction-flipped curve 0-4 h after induction (AUC4h, not background-subtracted), DNA-recorder readout of cleavage of the substrate (dimensionless); higher = more cleavage of the substrate by the protease variant
Settings: temperature: 34 °C; time window: 0-4 h after rhamnose induction
Description: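 In vivo DNA recorder in E. coli TOP10(DE3) ΔrhaA at 34 °C. Each TEVp single-site mutant (parent TEVp 0) is paired with a single-site variant of the 7-mer TEVs (canonical ENLYFQ|S). The substrate sits between flexible linkers in a Bxb1-sfGFP-TEVs-SsrA fusion, so cleavage stabilises Bxb1 and speeds flipping of a recombination array, read by NGS. The value is the raw area under the fraction-flipped curve over 0-4 h after rhamnose induction (AUC4h), with ≥20 reads per time point. It is not background-subtracted; inactive controls average about 0.047.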
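Also: Bxb1 expression induced with 0.2% (w/v) L-rhamnose at OD600 near 0.5, cultures sampled hourly, flipped fraction per protease–substrate barcode pair counted by paired-end Illumina sequencing.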

Variant | area with substrate ENLYFQC | area with substrate ENLYFQG | area with substrate ENLYFQL | area with substrate ENLYFQQ | area with substrate ENLYFQR | area with substrate ENLYFQS | area with substrate ENLYFQT | area with substrate ENLYFQF | area with substrate ENLYFQI | area with substrate ENLYFQK | area with substrate ENLYFQM | area with substrate ENLYFQN | area with substrate ENLYFQW | area with substrate ENLYFQY | area with substrate ENLYFQD | area with substrate ENLYFQE | area with substrate ENLYFQV | area with substrate ENLYFQH | area with substrate ENLYFQP
MGESLFKGPRDYNPISSSICHLTNESDGHTTSLYGIGFGPFIITNKHLFRRNNGTLVVQSLHGVFKVKDTTTLQQHLVDGRDMIIIRMPKDFPPFPQKLKFREPQREERICLVTTNFVTKSMSSMVSDTSCTFPSGDGIFWKHWIQTKDGQCGSPLVSTRDGFIVGIHSASNFTNTNNYFTSVPKNFMELLTNQEAQQWVSGWRLNADSVLWGGHKVFMVKPEEPFQPVKEATQL [Q118V] | 0.112 | 0.111 | 0.0679 | 0.0684 | 0.0578 | 0.106 | 0.0534 | – | – | – | – | – | – | – | – | – | – | – | –
MGESLFKGPRDYNPISSSICHLTNESDGHTTSLYGIGFGPFIITNKHLFRRNNGTLVVQSLHGVFKVKDTTTLQQHLVDGRDMIIIRMPKQFPPFPQKLKFREPQREERICLVTTNFQTKSMSSMVSDTSCTFPSGDGIFWKHWIQTKDGQCGSPLVSTRDGFIVGIHSASNFTNTNNYFTSVPKNFMELLTNQEAQQWVSGWRLNADSVLWGGHKVFMVKPEEPFQPVKEATQL [D91Q] | 0.111 | – | 0.0429 | 0.0627 | – | 0.103 | – | 0.0761 | 0.0707 | 0.059 | – | – | – | – | – | – | – | – | –
MGESLFKGPRDYNPISSSICHLTNESDGHTTSLYGIGFGPFIITNKHLFRRNNGTLVVQSLHGVFKVKDTTTLQQHLVDGRDMIIIRMPKDFPPFPQKLKFREPQREERICLVTTNFQTKSASSMVSDTSCTFPSGDGIFWKHWIQTKDGQCGSPLVSTRDGFIVGIHSASNFTNTNNYFTSVPKNFMELLTNQEAQQWVSGWRLNADSVLWGGHKVFMVKPEEPFQPVKEATQL [M122A] | 0.12 | 0.106 | – | – | – | 0.11 | 0.0583 | – | 0.0546 | 0.0727 | 0.0833 | 0.0822 | 0.0619 | 0.0902 | – | – | – | – | –
MGESLFKGPRDYNPISSSICHLTNESDGHTTSLYGIGFGPFIITNKHLFRRNNGTLVVQSLHGVFKVKDTTTLQQHLVDGRDMIIIRMPKDFPPFPQKLKFREPQREERICLVTTNFQTKSNSSMVSDTSCTFPSGDGIFWKHWIQTKDGQCGSPLVSTRDGFIVGIHSASNFTNTNNYFTSVPKNFMELLTNQEAQQWVSGWRLNADSVLWGGHKVFMVKPEEPFQPVKEATQL [M122N] | 0.117 | – | 0.075 | – | – | 0.106 | 0.0599 | 0.0826 | 0.0707 | 0.0584 | – | 0.0817 | 0.0696 | 0.0741 | 0.0772 | 0.0499 | 0.08 | – | –
MGESLFKGPRDYNPISSSICHLTNESDGHTTSLYGIGFGPFIITNKHLFRRNNGTLVVQSLHGVFKVKDTTTLQQHLVDGRDMIIIRMPKDFPPFPQKPKFREPQREERICLVTTNFQTKSMSSMVSDTSCTFPSGDGIFWKHWIQTKDGQCGSPLVSTRDGFIVGIHSASNFTNTNNYFTSVPKNFMELLTNQEAQQWVSGWRLNADSVLWGGHKVFMVKPEEPFQPVKEATQL [L99P] | 0.0846 | 0.0927 | – | – | 0.0561 | 0.0981 | 0.0657 | 0.0908 | 0.0656 | – | 0.006 | 0.0729 | 0.0431 | – | 0.0657 | – | – | 0.0857 | 0.0556
MGESLFKGPRDYNPISSSICHLTNESDGHTTSLYGIGFGPFIITNKHLFRRNNGTLVVQSLHGVFKVKDTTTLQQHLVDGRDMIIIRMPKDFAPFPQKLKFREPQREERICLVTTNFQTKSMSSMVSDTSCTFPSGDGIFWKHWIQTKDGQCGSPLVSTRDGFIVGIHSASNFTNTNNYFTSVPKNFMELLTNQEAQQWVSGWRLNADSVLWGGHKVFMVKPEEPFQPVKEATQL [P93A] | 0.12 | – | 0.0515 | – | 0.0516 | 0.105 | 0.0579 | 0.0795 | – | 0.0576 | – | 0.0792 | – | – | – | – | 0.0567 | – | 0.0512
